Results from the supplement of paper PMC6089552.
About 300 (9.4%) of roughly 3,200 compounds showed activity. The list shows a part of the results, in another mix than the full data.

Tested on: A673/TR/shEF
Assay: cell viability (LOESS-normalised, relative to median of negative controls) (log2 ratio); higher = more viable cells (less compound effect), active = hit call of the paper (over 3 MAD below the median)
Settings: treatment time: 72 h
In short: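 A673/TR/shEF Ewing sarcoma cells were plated at 1,500 per well in 384-well plates and cultured with or without doxycycline, added 24 h before compounds, to induce EWS-FLI1 shRNA knockdown. Library compounds at two or more concentrations, alongside DMSO controls, were applied for three days. Cell viability was measured by CellTiter-Glo luminescence on an Envision reader. Readings were LOESS-corrected per plate, divided by the median of negative controls and log2-transformed, and hits were wells lying at least three median absolute deviations from the median of all screened wells.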

[1] = 0.25 µM, library screen: screen1, EWS-FLI1 expression: high (no doxycycline)
[2] = 0.25 µM, library screen: screen1, EWS-FLI1 expression: low (doxycycline-induced shRNA knockdown)
[3] = 2.5 µM, library screen: screen1, EWS-FLI1 expression: high (no doxycycline)
[4] = 2.5 µM, library screen: screen1, EWS-FLI1 expression: low (doxycycline-induced shRNA knockdown)
[5] = 0.103 µM, library screen: screen3, EWS-FLI1 expression: high (no doxycycline)
[6] = 0.103 µM, library screen: screen3, EWS-FLI1 expression: low (doxycycline-induced shRNA knockdown)
[7] = 0.308 µM, library screen: screen3, EWS-FLI1 expression: high (no doxycycline)
[8] = 0.308 µM, library screen: screen3, EWS-FLI1 expression: low (doxycycline-induced shRNA knockdown)
[9] = 0.926 µM, library screen: screen3, EWS-FLI1 expression: high (no doxycycline)
[10] = 0.926 µM, library screen: screen3, EWS-FLI1 expression: low (doxycycline-induced shRNA knockdown)
[11] = 2.8 µM, library screen: screen3, EWS-FLI1 expression: high (no doxycycline)
[12] = 2.8 µM, library screen: screen3, EWS-FLI1 expression: low (doxycycline-induced shRNA knockdown)
[13] = 8.3 µM, library screen: screen3, EWS-FLI1 expression: high (no doxycycline)
[14] = 8.3 µM, library screen: screen3, EWS-FLI1 expression: low (doxycycline-induced shRNA knockdown)
[15] = 25 µM, library screen: screen3, EWS-FLI1 expression: high (no doxycycline)
[16] = 25 µM, library screen: screen3, EWS-FLI1 expression: low (doxycycline-induced shRNA knockdown)
[17] = 0.25 µM, library screen: screen2, EWS-FLI1 expression: high (no doxycycline)
[18] = 0.25 µM, library screen: screen2, EWS-FLI1 expression: low (doxycycline-induced shRNA knockdown)
[19] = 2.5 µM, library screen: screen2, EWS-FLI1 expression: high (no doxycycline)
[20] = 2.5 µM, library screen: screen2, EWS-FLI1 expression: low (doxycycline-induced shRNA knockdown)

Measured: cell viability (log2)

CC(=O)CCC(=O)O
inactive: [1] 0.109 | [2] -0.0377 | [3] 0.149 | [4] 0.116

CC[C@H]1OC(=O)[C@H](C)[C@@H](O[C@H]2C[C@@](C)(OC)[C@@H](O)[C@H](C)O2)[C@H](C)[C@@H](O[C@@H]2O[C@H](C)C[C@H](N(C)C)[C@H]2O)[C@](C)(OC)C[C@@H](C)C(=O)[C@H](C)[C@@H](O)[C@]1(C)O
inactive: [5] 0.0902 | [6] 0.108 | [1] 0.0996 | [2] 0.0329 | [7] 0.116 | [8] 0.0395 | [9] 0.0584 | [10] 0.101 | [3] 0.141 | [4] -0.0156 | [11] 0.0826 | [12] 0.0746 | [13] 0.0519 | [14] 0.1 | [15] 0.0701 | [16] 0.063

C[C@H]1COC2=C1C(=O)C(=O)c1c2ccc2c1CCCC2(C)C
active: [15] -0.196 | [16] -0.308
inactive: [5] 0.0338 | [6] 0.0754 | [7] 0.0526 | [8] 0.0683 | [9] 0.0196 | [10] 0.0264 | [11] -0.0315 | [12] -0.0274 | [13] 0.0932 | [14] -0.035

NC(=O)Cc1cccc(C(=O)c2ccccc2)c1N
inactive: [5] 0.11 | [6] 0.0297 | [7] 0.0847 | [8] 0.0563 | [9] 0.0483 | [10] 0.064 | [11] 0.0322 | [12] 0.0631 | [13] 0.0846 | [14] 0.0598 | [15] -0.0622 | [16] -0.0429

CC(=O)SCC[N+](C)(C)C
inactive: [17] -0.0322 | [18] 0.039 | [19] -0.0265 | [20] 0.0874

CCCCOC(=O)c1ccc(N)cc1
inactive: [1] 0.101 | [2] 0.027 | [3] 0.144 | [4] 0.0774

CC(C)C[C@H](NC(=O)[C@H]1O[C@@H]1C(=O)O)C(=O)NCCCCN=C(N)N
inactive: [17] 0.159 | [18] 0.0497 | [19] 0.101 | [20] 0.0758

CCCCCCc1ccc(O)cc1O
inactive: [1] 0.131 | [2] 0.0469 | [3] 0.139 | [4] 0.145

CC1(C)NC(=O)N(c2ccc([N+](=O)[O-])c(C(F)(F)F)c2)C1=O
inactive: [1] 0.0999 | [2] 0.0399 | [17] 0.127 | [18] 0.0979 | [3] 0.113 | [4] 0.0337 | [19] 0.112 | [20] 0.0983

C=C1CC[C@@H]2[C@H](CC2(C)C)C(=O)CC[C@@H]1O
inactive: [1] 0.0475 | [2] 0.00133 | [3] 0.0814 | [4] 0.0623

COC(=O)[C@@H]1[C@H]2C[C@H]3c4[nH]c5ccccc5c4CCN3C[C@@H]2CC[C@@H]1O
inactive: [1] 0.0728 | [2] 0.0586 | [17] 0.128 | [18] 0.0502 | [3] 0.139 | [4] 0.126 | [19] 0.196 | [20] 0.126

CCC(C)n1ncn(-c2ccc(N3CCN(c4ccc(OC[C@H]5CO[C@](Cn6cncn6)(c6ccc(Cl)cc6Cl)O5)cc4)CC3)cc2)c1=O (stereo not given in full)
inactive: [5] -0.00587 | [6] -0.0322 | [7] 0.0158 | [8] 0.0366 | [9] 0.0942 | [10] 0.0808 | [11] 0.0248 | [12] 0.0437 | [13] -0.13 | [14] 0.0912 | [15] 0.0658 | [16] 0.11

COC(=O)C[C@H]1C(C)(C)C(=O)[C@@H]2CC3=C4CC(=O)O[C@@H](c5ccoc5)[C@]4(C)CC[C@@H]3[C@@]1(C)C2=O
inactive: [1] 0.0642 | [2] 0.0645 | [3] 0.101 | [4] 0.103

COc1ccc(C(=O)CC(=O)O)c2c1C=CC(C)(C)O2
inactive: [1] -0.00754 | [2] -0.0232 | [3] 0.0962 | [4] 0.0419

CC(=O)O.CC(=O)O.[Cd]
inactive: [1] 0.129 | [2] -0.0033 | [3] 0.0042 | [4] -0.0745

C[C@@H](NC(=O)/C(C#N)=C/c1ccc(O)c(O)c1)c1ccccc1
inactive: [17] 0.139 | [18] -0.0177 | [19] 0.152 | [20] 0.00798

Cc1cn2c(=O)c3ccccc3nc2nc1Nc1ccccc1C(=O)O
inactive: [1] 0.138 | [2] 0.0987 | [3] 0.0749 | [4] 0.0532

COc1ccc2cc1Oc1ccc(cc1)C[C@H]1c3cc(c(OC)cc3CCN1C)Oc1c(OC)c(OC)cc3c1[C@H](C2)N(C)CC3
inactive: [1] 0.12 | [2] 0.189 | [3] 0.0802 | [4] 0.184

O=C1CCc2cc(OCCCCc3nnnn3C3CCCCC3)ccc2N1
inactive: [5] 0.129 | [6] 0.114 | [17] 0.102 | [18] 0.07 | [7] 0.102 | [8] 0.0804 | [9] 0.0992 | [10] 0.0606 | [19] 0.106 | [20] 0.0622 | [11] 0.092 | [12] 0.0616 | [13] 0.0747 | [14] -0.00245 | [15] 0.072 | [16] 0.113

CCS(=O)(=O)CCn1c([N+](=O)[O-])cnc1C
inactive: [1] 0.0677 | [2] 0.0867 | [3] 0.12 | [4] 0.0978

CCCCOc1cc(C(=O)NCCN(CC)CC)c2ccccc2n1
inactive: [1] 0.151 | [2] 0.163 | [3] 0.226 | [4] 0.143

O=P(O)(O)C(Cl)(Cl)P(=O)(O)O
inactive: [17] 0.206 | [18] 0.0911 | [19] 0.127 | [20] 0.1

CCN1C(=O)/C(=C\c2cn(CCC#N)nc2-c2ccc(F)cc2)SC1=S
inactive: [1] 0.0868 | [2] 0.118 | [3] 0.107 | [4] -0.0141

CC(C)(C)OC(=O)C(C)(N)c1ccc(Cl)cc1 (stereo not given)
inactive: [17] 0.157 | [18] 0.0841 | [19] 0.151 | [20] 0.141

CC1=C(C(=O)OC2CCCC2)C(c2coc3ccccc3c2=O)C2=C(CC(C)(C)CC2=O)N1 (stereo not given)
inactive: [1] 0.0783 | [2] 0.0738 | [3] 0.145 | [4] 0.0146

C=C1C(=O)O[C@@H]2C[C@@]3(C)CCC[C@H](C)C3=C[C@H]12
inactive: 0.025 µM, library screen: screen2, EWS-FLI1 expression: high (no doxycycline) 0.148 | 0.025 µM, library screen: screen2, EWS-FLI1 expression: low (doxycycline-induced shRNA knockdown) 0.0581 | [1] 0.0724 | [2] -0.00207 | [17] 0.177 | [18] 0.0288 | [3] 0.152 | [4] 0.0584 | [19] 0.0901 | [20] 0.000642 | 25 µM, library screen: screen2, EWS-FLI1 expression: high (no doxycycline) -0.0554 | 25 µM, library screen: screen2, EWS-FLI1 expression: low (doxycycline-induced shRNA knockdown) -0.102

OCc1cc(C(O)CNCCCCCCOCCCCc2ccccc2)ccc1O (stereo not given)
inactive: [17] 0.0817 | [18] 0.00254 | [19] 0.125 | [20] 0.0466

C#CCN1C(C)=C(C(=O)OC)C(c2cccc([N+](=O)[O-])c2)C(C(=O)OCC)=C1C (stereo not given)
inactive: [17] 0.0669 | [18] 0.0672 | [19] 0.0849 | [20] 0.179

CC(=O)OCC(=O)[C@@]12N=C(C)O[C@@H]1C[C@H]1[C@@H]3CCC4=CC(=O)C=C[C@]4(C)[C@H]3[C@@H](O)C[C@@]12C
inactive: [5] 0.114 | [6] -0.0782 | [7] 0.116 | [8] 0.0535 | [9] 0.0398 | [10] 0.0599 | [11] 0.0606 | [12] 0.106 | [13] 0.109 | [14] 0.0725 | [15] 0.0446 | [16] 0.128

C=C1c2c(Cl)ccc(O)c2C(O)=C2C(=O)[C@]3(O)C(O)=C(C(N)=O)C(=O)[C@@H](N(C)C)[C@@H]3[C@@H](O)[C@H]12.O=C(O)c1cc(S(=O)(=O)O)ccc1O
active: [1] -0.128 | [3] -0.126
inactive: [2] 0.0882 | [4] 0.0927

CNCCC(Oc1ccc(C(F)(F)F)cc1)c1ccccc1 (stereo not given)
inactive: [5] 0.0657 | [6] 0.074 | [1] 0.199 | [2] 0.0653 | [17] 0.168 | [18] 0.061 | [7] 0.158 | [8] 0.0915 | [9] 0.127 | [10] 0.0928 | [3] 0.117 | [4] 0.121 | [19] 0.107 | [20] 0.0684 | [11] 0.106 | [12] 0.0514 | [13] 0.138 | [14] 0.0456 | [15] -0.00243 | [16] 0.102

Cc1nc2n(c(=O)c1CCN1CCC(c3noc4cc(F)ccc34)CC1)CCCC2
inactive: [5] 0.122 | [6] 0.0679 | [17] 0.0834 | [18] 0.0805 | [7] 0.0952 | [8] 0.118 | [9] 0.0358 | [10] 0.121 | [19] 0.16 | [20] 0.0814 | [11] 0.0509 | [12] 0.0563 | [13] 0.0819 | [14] 0.0474 | [15] 0.0967 | [16] 0.0689

C[C@@H](CN1CC(=O)NC(=O)C1)N1CC(=O)NC(=O)C1
inactive: [5] 0.159 | [6] 0.0755 | [7] 0.137 | [8] 0.0259 | [9] 0.142 | [10] 0.0579 | [11] 0.0229 | [12] 0.0634 | [13] 0.0222 | [14] 0.0663 | [15] 0.081 | [16] 0.122
